The text below walks through data of patent US12116397B2, “IL-IR-I binding polypeptide” (Swedish Orphan Biovitrum AB (publ), priority 2017, dated 2024).

Numbering of substitutions follows the chain as printed.

One data set relates to TF-1 cells. As to the kind of experiment: In vitro IL-1β neutralization assay (TF-1 cell assay). In kind it is cell-based. The conditions noted are these: His6-Z polypeptides, IL-1β inhibition in TF-1 cell assay, Table 20 (Example 9). Here is the method: The TF-1 cell line proliferates in response to many different cytokines including IL-1β. This cell line was used to assess the ability of primary IL-1R1 binders to inhibit IL-1β actions. TF-1 cells were maintained in RPM11640 with L-glutamine (Lonza) supplemented with 10% FCS (Gibco), Penicillin-Streptomycin (Lonza) and 2 ng/ml rhGM-CSF (R&D Systems). Prior to use, cells were washed twice in RPM11640 without rhGM-CSF. Cells were then counted and dispensed into 96 well flat bottomed plates at a density of 3×10^4 cells per well. In separate plates, serial dilutions of the inhibitory binders; His6-tagged IL-1R-I binding Z variants, with a concentration range of 400-0.1 nM, or the IL-1R-I binding protein Kineret (anakinra, Sobi), with a concentration range of 0.3-0.0003 nM, were incubated in the presence of 0.6 nM IL-1β (PeproTech). The pre-mixed complexes of the Z variant polypeptides and IL-13 were transferred to wells containing TF-1 cells. The cells were stimulated for 72 h at 37° C. in a humidified 5% CO2 atmosphere. During the last four hours of incubation, 19 μl of 2× diluted CCK-8 (Fluka, Sigma Aldrich), was added per well to determine the proliferative responses. The absorbance was measured at 450 nm using a microplate reader (Victor3, Perkin Elmer). The data on cell growth was assessed by non-linear regression to a four-parameter dose-response curve, and the half maximal inhibitory concentration (IC50) was determined using GraphPadPrism program.
His6-tagged IL-1R-I specific Z variants were tested for their inhibitory capacity in the TF-1 cell assay. The assay was run as described in Example 2. The data on cell growth was assessed by non-linear regression to a four-parameter dose-response curve, and IC50 values were determined using GraphPadPrism program. His6-tagged Z12967 was included for comparison.
His6-tagged IL-1R-I specific Z variants were tested for their inhibitory capacity in the TF-1 cell assay. The assay was run as described in Example 2. The data on cell growth was assessed by non-linear regression to a four-parameter dose-response curve, and IC50 values were determined using GraphPadPrism program. His6-tagged Z12967, Z16065, Z16163 and Z18557 were included for comparison.

Data set [1] can be described thus: Circular dichroism (CD) spectroscopy analysis, melting temperature and refolding. In kind it is physicochemical. Conditions: for Melting temperatures (Tm): His6-tagged Z variants, CD variable temperature measurement, Table 21. Here is the method:
Purified His6-tagged Z variants were diluted to 0.5 mg/ml in PBS. For each diluted Z variant, a CD spectrum at 250-195 nm was obtained at 20° C. In addition, a variable temperature measurement (VTM) was performed to determine the melting temperature (Tm). In the VTM, the absorbance was measured at 221 nm while the temperature was raised from 20 to 90° C., with a temperature slope of 5° C./min. A new CD spectrum was obtained at 20° C. after the heating procedure in order to study the refolding ability of the Z variants. The CD measurements were performed on a Jasco J-810 spectropolarimeter (Jasco Scandinavia AB) using a cell with an optical path length of 1 mm.
CD was analyzed for His6-tagged Z variants, as described in Example 2.
Background: Circular dichroism is widely used to follow secondary structure.

A further data set has as its target T1, hIL-1R-I (Homo sapiens, UniProt P14778).
T1 construct: purchased R&D Systems 269-1R/CF
T1 sequence (P14778 18-569): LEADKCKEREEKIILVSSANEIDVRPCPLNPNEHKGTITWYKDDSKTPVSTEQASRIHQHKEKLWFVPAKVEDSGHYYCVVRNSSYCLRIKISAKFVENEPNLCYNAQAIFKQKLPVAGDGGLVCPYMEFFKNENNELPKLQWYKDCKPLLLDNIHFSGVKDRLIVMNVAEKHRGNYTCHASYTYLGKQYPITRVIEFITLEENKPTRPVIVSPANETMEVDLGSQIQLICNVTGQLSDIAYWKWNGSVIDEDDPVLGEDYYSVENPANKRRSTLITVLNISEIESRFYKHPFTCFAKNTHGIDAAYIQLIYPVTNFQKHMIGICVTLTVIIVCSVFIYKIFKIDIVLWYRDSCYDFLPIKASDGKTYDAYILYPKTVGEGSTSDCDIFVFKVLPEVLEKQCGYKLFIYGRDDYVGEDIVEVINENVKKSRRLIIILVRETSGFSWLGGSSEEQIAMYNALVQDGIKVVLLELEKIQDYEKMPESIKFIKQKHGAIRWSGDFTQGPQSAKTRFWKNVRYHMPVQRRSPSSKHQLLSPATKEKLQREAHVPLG
As to the kind of experiment: Biacore affinity/kinetic analysis of His6-tagged Z variants, human IL-1R-I. Conditions: His6-Z polypeptides binding to human IL-1R-I, Biacore, Table 19; for Kd: read-out: KD. In kind it is binding. Here is the method: Affinities (KD) for human and cynomolgus IL-1R-I were determined for His6-tagged Z variants using a Biacore 2000 instrument (GE Healthcare). hIL-1R-I or cIL-1R-I-His6 was immobilized on the carboxylated dextran layer in different flow cells of a CM5 chip (GE Healthcare, cat. no. BR100012). The immobilization was performed using amine coupling chemistry according to the manufacturer's protocol. Acetate pH 4.5 (GE Healthcare, cat. no. BR100350) was used for ligand dilution and HBS-EP (GE Healthcare, cat. no. BR100188) was used as running buffer. One flow cell surface on the chip was activated and deactivated for use as blank during analyte injections. In the kinetic experiment, HBS-EP was used as running buffer, the flow rate was 50 μl/min and the temperature was 25° C. The analytes, i.e. the Z variants, were each diluted in HBS-EP buffer to final concentrations of 40 nM and 10 nM, and were injected over the target chip surfaces for 2 min, followed by dissociation in running buffer for 8 min. Kinetic constants were calculated from the obtained sensorgrams using a 1:1 binding model, in the BiaEvaluation software 4.1 (GE Healthcare).
The kinetic constants (kon and koff) and affinities (KD) for human and cynomolgus IL-1R-I were determined for His6-tagged Z variants using a Biacore 2000 instrument (GE Healthcare). The experiment was run essentially as described in Example 2, using 100, 10 and 1 nM of the Z variants. The analyte injection time was 3 min followed by 15 min dissociation and 2×5 s glycine pH 3.0 (GE Healthcare, cat. no. BR100357), supplemented with 0.5 M NaCl, was used for regeneration of the surfaces between the cycles. Kinetic constants were calculated from the obtained sensorgrams of two or three concentrations of the respective Z variant, using a 1:1 binding model in the BiaEvaluation software 4.1 (GE Healthcare). His6-tagged Z12967 was included in the assay for comparison.
The kinetic constants (kon and koff) and affinities (KD) for human and cynomolgus IL-1R-I were determined for His6-tagged Z variants using a Biacore 2000 instrument (GE Healthcare). The experiment was run essentially as described in Example 5, using 48, 12, 3 and 0.75 nM of the Z variants. The analyte injection time was 3 min followed by 6 min dissociation and 2×5 s glycine pH 3.0, supplemented with 0.5 M NaCl, was used for regeneration of the surfaces between the cycles. Kinetic constants were calculated from the obtained sensorgrams of three or four concentrations of the respective Z variant, using a 1:1 binding model in the BiaEvaluation software 4.1 (GE Healthcare). His6-tagged Z12967 (SEQ ID NO:9), Z16065 (SEQ ID NO:268), Z16163 (SEQ ID NO:359) and Z18557 (SEQ ID NO:1205) were included in the assay for comparison.

B1: Z19072: IL-1R-I binding Z variant with valine or isoleucine in position X5 (protein)
chain: AQHDEALEVDAKYAKEIEEIQLEIFSLPNLTRKQYTAFIRKLLDDPSQSSELLSEAKKLNDSQAPKVDYVLAEAKVLANRELDKYGVSDYYKNLINNAKTVEGVKALIDEILAALPYVPG
On to B1, for which, in the data set with TF-1 cells, the IC50 (commonly the midpoint of a concentration-inhibition curve) is 2.4 nM. Further, the “Melting temperatures (Tm)” value in data set [1] was found to be 63 °C. The “thermo-stability and α-helical content versus Z variants having alanine in position X5” value in data set [1] (His6-tagged, valine or isoleucine in position X5 of the BM (Example 9)) is recorded as “not substantially different”. Moreover, in the data set with hIL-1R-I, the koff – broadly, the rate constant with which the complex falls apart – was 0.018 s⁻¹; the kon – broadly, a measure of how fast the partners come together – was found to be 4.3e+07 M⁻¹ s⁻¹; the Kd (commonly the equilibrium constant for the complex coming apart) was 0.41 nM.

B2: Z18832 (protein)
chain: B1 chain with I17V, L22M, S26H, K33R
In the data set on TF-1 cells, B2 registered an IC50 of 0.5 nM. Also, in data set [1], the “Melting temperatures (Tm)” value is 58 °C. In the data set with hIL-1R-I, the koff was 0.007 s⁻¹, the kon was 5.9e+07 M⁻¹ s⁻¹ and the equilibrium dissociation constant (Kd) came to 0.12 nM.

B3: Z18813 (protein)
chain: B1 chain with I17V, L22M, S26A, L43F
Regarding B3, the IC50 in the data set on TF-1 cells was determined as 1.2 nM. Also, in data set [1], the “Melting temperatures (Tm)” value came out at 61 °C. Further, in the data set with hIL-1R-I, the off-rate constant (koff) came to 0.0039 s⁻¹ and the kon was found to be 2e+07 M⁻¹ s⁻¹.

B4: Z18834 (protein)
chain: B1 chain with I17V, L22M, S26G, K33R
Take B4: the IC50 in the data set on TF-1 cells stood at 0.5 nM. The “Melting temperatures (Tm)” value in data set [1] turned out to be 58 °C. In the data set with hIL-1R-I, the koff worked out at 0.008 s⁻¹, the kon is 5.8e+07 M⁻¹ s⁻¹ and the dissociation constant (Kd) came out at 0.14 nM.

B5: Z15934 (protein)
chain: B1 chain with I17V, E18T, E19V, I20A, L22M, S26A
In turn, B5 showed an IC50 in the data set with TF-1 cells of 6.4 nM. The “Melting temperatures (Tm)” value in data set [1] was 62 °C. For the same molecule, in the data set with hIL-1R-I, the koff was found to be 0.011 s⁻¹, the kon was 1.4e+07 M⁻¹ s⁻¹ and the equilibrium dissociation constant (Kd) came to 0.75 nM.
